Each structure is given as a SMILES string. Values joined by “and” are separate entries in the source; they are usually repeats but may differ in a detail not shown here. Equal values may be shown once. Out of some 16,000 compounds screened, about 40 (0.2%) were called active. Roughly 1% stayed inconclusive and do not appear here. The call rests on the fitted dose curve; in most records, active means well fitted activation curve with a large enough effect; inconclusive means small, poorly fitted or top-dose-only effect, or another doubt; inactive means no such curve, though single readings can be large or run the other way. The list shows a part of the results.
On the % scale 0 is the no-effect control and ±100 the full control effect.

UniProt Q8WZA2, sequence (Q8WZA2 whole entry, looked up): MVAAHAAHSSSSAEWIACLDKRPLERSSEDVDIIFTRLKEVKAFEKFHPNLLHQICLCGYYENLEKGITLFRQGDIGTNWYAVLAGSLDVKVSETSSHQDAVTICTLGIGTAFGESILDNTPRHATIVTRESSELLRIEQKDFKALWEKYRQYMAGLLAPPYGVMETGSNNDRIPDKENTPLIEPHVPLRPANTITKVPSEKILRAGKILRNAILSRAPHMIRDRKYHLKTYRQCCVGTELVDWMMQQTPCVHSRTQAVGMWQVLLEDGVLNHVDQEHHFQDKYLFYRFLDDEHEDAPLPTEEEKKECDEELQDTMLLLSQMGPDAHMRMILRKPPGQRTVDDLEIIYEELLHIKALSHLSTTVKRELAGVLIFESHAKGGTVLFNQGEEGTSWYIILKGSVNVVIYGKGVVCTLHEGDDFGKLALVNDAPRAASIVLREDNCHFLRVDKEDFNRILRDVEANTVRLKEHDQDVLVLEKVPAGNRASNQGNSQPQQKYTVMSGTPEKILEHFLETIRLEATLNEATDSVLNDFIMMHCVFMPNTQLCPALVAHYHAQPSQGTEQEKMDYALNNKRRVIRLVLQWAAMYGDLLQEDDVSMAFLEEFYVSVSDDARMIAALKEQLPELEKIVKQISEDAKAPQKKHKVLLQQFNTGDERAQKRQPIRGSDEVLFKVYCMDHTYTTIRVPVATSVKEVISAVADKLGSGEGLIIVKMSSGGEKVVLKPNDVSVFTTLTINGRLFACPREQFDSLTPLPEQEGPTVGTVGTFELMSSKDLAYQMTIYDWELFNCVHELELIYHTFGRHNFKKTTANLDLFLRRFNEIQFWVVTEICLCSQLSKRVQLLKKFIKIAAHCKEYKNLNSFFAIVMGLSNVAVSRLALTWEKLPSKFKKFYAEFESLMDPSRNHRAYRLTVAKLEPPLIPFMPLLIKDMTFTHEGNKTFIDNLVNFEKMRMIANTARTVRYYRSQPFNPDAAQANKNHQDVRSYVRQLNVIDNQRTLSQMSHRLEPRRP

The experiment concerns the target Rap guanine nucleotide exchange factor 4 (Homo sapiens) (UniProt Q8WZA2). The experiment is described as follows: Validation qHTS for agonist of cAMP-regulated guanine nucleotide exchange factor 4 (EPAC2).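 Further: exchange makes BODIPY-GDP fluorescence drop when released from Rap1B; series mostly up to about 150 µM.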 Particulars: EPAC2 Rap1B BODIPY-GDP exchange, fluorescence; activation: hits give high values. An outline of the steps:
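Signal normalized against 6.5 mM cAMP as agonist control. Mix of EPAC2 (100 nM), RAP1B-BODIPY-GDP (250 nM) and GDP (50 uM) was read kinetically at 480/540 nm, every 5 min over 30 min, after 5 min room-temperature incubation with compound.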
In general terms: qHTS replaces the single test concentration by a dilution series.
On to `CCCCc1oc2ccc(NS(C)(=O)=O)cc2c1C(=O)c1ccc(OCCCN(CCCC)CCCC)cc1`, for which the activation was inactive: -3.52%. As for `CC(=O)N[C@H](C(=O)O)C(C)(C)SN=O`, the figure is inactive: -24.7%. As for `CNCCc1cnc(CCC(c2ccccc2)c2ccccc2)[nH]1`, the figure is inactive: -27.6%; as for `CC[C@](N)(CCC(=O)O)C(=O)O`, inactive: -6.21% and inactive: 14.2%. In the case of `CC(=O)OC1CC(O)C(C)(C)C2CC(OC(C)=O)[C@]3(C)C(CC[C@@]4(C)C(c5ccoc5)OC(=O)C5OC534)[C@]12C` (stereo not given in full), the activation is inactive: -2.4%.

In the case of `CCCCCCCCCCCCCCCC[N+](C)(C)Cc1ccccc1`, the activation is inactive: -45.1%. As for `NC(Cn1ccc(=O)c(O)c1)C(=O)O` (stereo not given), the figure is inactive: 0.24%; as for `N#CCCn1c(=O)c(-c2cc(F)cc(F)c2)nc2cnc(Nc3ccccc3)nc21`, inactive: -1.97%. In the case of `Cn1cc[nH]c1=S`, the activation is inactive: -11.4% and inactive: -1.5%. To `Cc1nc2ccc(C(=O)NCC3CCC4(CCN(Cc5cccnc5)CC4)O3)cc2nc1C` (stereo not given) belongs inactive: -14.2%; to `Cc1nc2cnc(N(C)C)nc2n(Cc2ccc(F)cc2)c1=O`, inactive: -12.6%. As for `O=C1[C@H](Cc2ccccc2)NCCCC[C@@H](c2ccc(Cl)cc2)N1Cc1ccc(Cl)cc1`, the figure is inactive: -16.8%; as for `CC1=NS(=O)(=O)c2cc(Cl)ccc2N1`, inactive: -15.7% [middle of 5 runs]; as for `COc1ccc(Oc2ncc3nc(-c4ccc(Cl)cc4)c(=O)n(C[C@H]4CCCO4)c3n2)cc1`, inactive: 11.7%. For `N#CCCn1c(=O)c(-c2cccs2)nc2cnc(Oc3ccccc3)nc21`, the activation was inactive: -4.87%. As for `COc1cccc(-c2cc(NCc3cnc(C)cn3)ncn2)c1`, the figure is inactive: -14.6%; as for `CN1N=C(C(=O)N2CCOc3ccc(CN4CCCC(C(=O)c5cccnc5)C4)cc3C2)CCC1=O` (stereo not given), inactive: -13.8%. As for `Cc1cccc(CN2Cc3cccc4c3[C@H](C=CC4)CC2=S)c1`, the figure is inactive: -21%; as for `NC(=O)c1ccc[n+]([C@@H]2OC(COP(=O)([O-])OP(=O)(O)OCC3OC(n4cnc5c(N)ncnc54)C(O)C3O)C(O)C2O)c1` (stereo not given in full), inactive: -11.1%. Regarding `c1csc(CNc2ncncc2-c2ccoc2)c1`, the activation was inactive: 4.43%. As for `CC(C)C[C@H](NC(=O)[C@@H](COC(C)(C)C)NC(=O)[C@H](Cc1ccc(O)cc1)NC(=O)[C@H](CO)NC(=O)[C@H](Cc1c[nH]c2ccccc12)NC(=O)[C@H](Cc1cnc[nH]1)NC(=O)[C@@H]1CCC(=O)N1)C(=O)N[C@@H](CCCN=C(N)N)C(=O)N1CCC[C@H]1C(=O)NNC(N)=O`, the figure is inactive: -3.27% and inactive: -13.5%; as for `COC(=O)[C@@H]1CCCN1C(=O)c1c(OC)cc(=O)n2c1CCN(Cc1ccc3c(c1)OCCO3)CC2`, inactive: 2.94%.

With `Cc1c(C(=O)NC(C)(C)CO)sc2ncnc(NCCN(C)C)c12`, the activation is inactive: -11.8%. As for `COc1ccc(OC)c(-c2cc(Cl)c3c(c2)CC(CNC(=O)c2cccnc2SC)O3)c1` (stereo not given), the figure is inactive: 11%; as for `Cc1cccc(C(=O)N[C@H]2CC[C@@H](n3cc(C(=O)N4CCCC4)nn3)CC2)c1`, inactive: 1.3%. To `COCc1ccc(C(=O)N2CCOc3c(cc(-c4cc(C)c5cccc(OC)c5n4)cc3OC)C2)o1` belongs inactive: -3.09%.

For `COc1cccc(Cn2c(=O)c(-c3cccs3)nc3cnc(N4CCOCC4)nc32)c1`, the activation was inactive: 23.5%. As for `CN1CCN(c2ncc3nc(-c4cc(F)cc(F)c4)c(=O)n(C)c3n2)CC1`, the figure is inactive: -14%; as for `CS(=O)(=O)Nc1cccc(-c2nccc(NCc3ccccc3)n2)c1`, inactive: -17.7%; as for `COC1=C(OC)C(=O)C(CC=C(C)CCC=C(C)CCC=C(C)CCC=C(C)CCC=C(C)CCC=C(C)CCC=C(C)CCC=C(C)CCC=C(C)CCC=C(C)C)=C(C)C1=O`, inactive: -5.75%. As for `COc1ccc(CN([C@H](CO)CC(C)C)S(=O)(=O)N(Cc2ccccc2)[C@H](CO)CC(C)C)cc1`, the figure is inactive: -27.3%. To `CC(C)NCC(O)COc1ccc(CC(N)=O)cc1` (stereo not given) belongs inactive: -8.32% and inactive: -3.55% and inactive: -11.1%; to `COc1ccc(NC(=O)N2CCC3(CC2)CCN(C(=O)c2cc(C(F)(F)F)cc(C(F)(F)F)c2)CC3)cc1`, inactive: -17.8%; to `O=C(CNC(=O)c1cccnc1)c1ccc(F)cc1`, inactive: -17.4%. For the compound `N[C@H](C(=O)O)C(O)C(O)C(O)CO` (stereo not given in full), the activation was inactive: -9.22%. To `COc1cc(O)cc(O)c1` belongs inactive: -23%; to `CCC12C(=Nc3c(Cl)cccc31)C[C@@H]1CCN3C(=O)CCC[C@H]2[C@H]13` (stereo not given in full), inactive: -24.6%.

Turning to `COc1ccc2[nH]cc(CCNc3nc(-c4ccccc4CN(C)C)nc4ccccc34)c2c1`, the activation was inactive: -12.2%.

Regarding `Oc1cc2c(cc1O)C(c1ccccc1)CNCC2` (stereo not given), the activation was inactive: -2.78% and inactive: -5.44% and inactive: -10.3%. To `CCCCCCCC(=O)OCC(COC(=O)CCCCCCC)OC(=O)CCCCCCC` belongs inactive: -10.6%. With `O=C(O)CC/C=C\CC[C@@H]1[C@@H](N2CCCCC2)[C@@H](O)C[C@@H]1OCc1ccc(-c2ccccc2)cc1`, the activation was inactive: -30.4%.

With `CN(C)c1ncc2nc(-c3cc(F)cc(F)c3)c(=O)n(Cc3cccs3)c2n1`, the activation was inactive: -14.7%. As for `COc1ccccc1-c1cncnc1-n1ccnc1`, the figure is inactive: -19.2%.

Consider `NC(C(=O)O)C(CC(=O)O)c1ccc(Cl)cc1` (stereo not given), for which the activation was inactive: 3.48%. As for `Cc1noc(C)c1-c1cc(NC2CCNCC2)ncn1`, the figure is inactive: -11%; as for `CCNc1ncc2nc(-c3cn(C)c4ccccc34)c(=O)n(CCC#N)c2n1`, inactive: -8.3%; as for `C[C@@]1(C2CCCC2)Cc2cc(OCC(=O)O)c(Cl)c(Cl)c2C1=O`, inactive: 4.48% and inactive: -17.5%. As to `O=C(Nc1ccc(Cl)c(C(F)(F)F)c1)[C@@H]1CC=C[C@@H]2CCN(Cc3ccccc3)C(=O)[C@@H]21`, the activation is inactive: -7.13%. To `COc1cc(=O)n2c(c1C(=O)N(C)Cc1nonc1C)CCN(Cc1cc(C)ccc1C)CC2` belongs inactive: 6.01%; to `Cn1c(=O)c2c(ncn2CC2OCCO2)n(C)c1=O`, inactive: -17.6%; to `CS(=O)(=O)c1ccc(C(O)C(CO)NC(=O)C(Cl)Cl)cc1` (stereo not given), inactive: -4.52%. To `Cc1cnc(CNc2cc(-c3cccc(C#N)c3)ncn2)cn1` belongs inactive: -10.9%.

`COc1ccccc1CCNCc1cc2cccc(C)c2nc1-c1cccs1`: the activation was inactive: -8.14%.

With `COc1ccccc1CN1CC2(CCN(C(=O)c3cccc(F)c3)CC2)C1`, the activation is inactive: -7.88%. As for `FC(F)(F)c1ccccc1-c1nc(N2CCOCC2)c2ccccc2n1`, the figure is inactive: -36.1%.

For the compound `CN(C)CCOc1ccccc1Cc1ccccc1` (tested in a mixture with another compound), the activation is inactive: -14.2%. As for `CCCC[C@H]1COCCS(=O)(=O)N1Cc1cccc(F)c1`, the figure is inactive: -34.2%. Regarding `CN1CCC2(CC1)CCN(S(=O)(=O)c1ccccc1)CC2`, the activation is inactive: -22.8%. To `O=C(C[n+]1ccncc1)c1cccc([N+](=O)[O-])c1` belongs inactive: -25.1%. As for `COc1ccc(-n2c(=O)c(-c3ccc(F)cc3)nc3cnc(N4CCOCC4)nc32)cc1`, the figure is inactive: -23%; as for `CC(=O)N(CC(O)CO)c1c(I)c(C(=O)NCCO)c(I)c(C(=O)NCC(O)CO)c1I` (stereo not given), inactive: 2%; as for `CN1CCN(c2ccnc(-c3ccccc3C(F)(F)F)n2)CC1`, inactive: -18.1%. As for `CN(C)c1ncc2nc(-c3ccc(F)cc3)c(=O)n(CCC#N)c2n1`, the figure is inactive: -6.55%.

With `CC(C)NC(=O)[C@@H]1C[C@@H](Sc2nc3ccccc3[nH]2)CN1C1Cc2ccccc2C1`, the activation is inactive: 9.17%. For `CN1CCN(c2ncncc2-c2cccnc2)CC1`, the activation was inactive: -8.45%. For the compound `COc1ccc(CNc2ncncc2-c2cccc(C#N)c2)c(OC)c1`, the activation was inactive: 6.14%. As for `COc1cc(-c2cnc3ccccc3c2)cc2c1OCCN(C(=O)Cn1nccc1C)C2`, the figure is inactive: -0.0267%. As for `COc1cc([C@@H]2c3cc4c(cc3C(O[C@@H]3O[C@@H]5CO[C@@H](C)O[C@H]5[C@H](O)[C@H]3O)C3COC(=O)[C@@H]32)OCO4)cc(OC)c1OP(=O)(O)O` (stereo not given in full), the figure is inactive: -12%; as for `O=C(NCCCN1CCOCC1)c1cnn(-c2ncc3c(n2)-c2ccccc2CC3)c1C1CC1`, inactive: -7.62%; as for `CC(C)(C)[C@H]1CCC(=O)N([C@H](CC#N)Cc2ccccc2)CC1`, inactive: -27.2%. As for `O=C1CCN(Cc2ccccc2)CCN1[C@H](COc1ccccc1)c1ccccc1`, the figure is inactive: -23.4%; as for `COc1ccccc1CN1CCC2(CCC(CNC(=O)c3ccccc3N(C)C)O2)CC1` (stereo not given), inactive: -11.2%. Turning to `COc1cccc(Cn2c(=O)c(-c3cccs3)nc3cnc(N(C)C)nc32)c1`, the activation is inactive: -8.67%. To `Cc1ccc(C(=O)N(Cc2cc3ccc(F)cc3nc2N2CCC(O)CC2)CC2CCCO2)cc1` (stereo not given) belongs inactive: -2.31%; to `COc1ncc2nc(CCc3ccccc3)c(=O)n(Cc3ccc(F)cc3)c2n1`, inactive: -8.84%; to `COc1ccc(NC(=O)N2CC3(CCN(C(=O)c4cccc(F)c4)CC3)C2)cc1`, inactive: -14.9%. Consider `FC(F)(F)c1ccccc1-c1nc(NCCN2CCOCC2)c2ccccc2n1`, for which the activation was inactive: -5.46%. To `COCC(=O)N1CCC2(CCCN(C(=O)Nc3ccc(OC)cc3)C2)CC1` belongs inactive: -0.504%; to `CC(=O)N(CC(O)CO)c1c(I)c(C(=O)NCC(O)CO)c(I)c(C(=O)NCC(O)CO)c1I` (stereo not given), inactive: -28.7%.

On to `COc1cc(=O)n2c(c1C(=O)N(C)Cc1ccsc1)CCN(Cc1c(C)nn(C)c1Cl)CC2`, for which the activation is inactive: 3.96%.
